Data from the supplement of paper PMC3334620.
In all, about 33,000 sequences were measured (“E-score (-0.5 to 0.5)”: median about -0.012, highest 2% from about 0.29 on). The list shows a part of the results.

Biological target: T1, Ybr033w (UniProt P38073)
T1 sequence: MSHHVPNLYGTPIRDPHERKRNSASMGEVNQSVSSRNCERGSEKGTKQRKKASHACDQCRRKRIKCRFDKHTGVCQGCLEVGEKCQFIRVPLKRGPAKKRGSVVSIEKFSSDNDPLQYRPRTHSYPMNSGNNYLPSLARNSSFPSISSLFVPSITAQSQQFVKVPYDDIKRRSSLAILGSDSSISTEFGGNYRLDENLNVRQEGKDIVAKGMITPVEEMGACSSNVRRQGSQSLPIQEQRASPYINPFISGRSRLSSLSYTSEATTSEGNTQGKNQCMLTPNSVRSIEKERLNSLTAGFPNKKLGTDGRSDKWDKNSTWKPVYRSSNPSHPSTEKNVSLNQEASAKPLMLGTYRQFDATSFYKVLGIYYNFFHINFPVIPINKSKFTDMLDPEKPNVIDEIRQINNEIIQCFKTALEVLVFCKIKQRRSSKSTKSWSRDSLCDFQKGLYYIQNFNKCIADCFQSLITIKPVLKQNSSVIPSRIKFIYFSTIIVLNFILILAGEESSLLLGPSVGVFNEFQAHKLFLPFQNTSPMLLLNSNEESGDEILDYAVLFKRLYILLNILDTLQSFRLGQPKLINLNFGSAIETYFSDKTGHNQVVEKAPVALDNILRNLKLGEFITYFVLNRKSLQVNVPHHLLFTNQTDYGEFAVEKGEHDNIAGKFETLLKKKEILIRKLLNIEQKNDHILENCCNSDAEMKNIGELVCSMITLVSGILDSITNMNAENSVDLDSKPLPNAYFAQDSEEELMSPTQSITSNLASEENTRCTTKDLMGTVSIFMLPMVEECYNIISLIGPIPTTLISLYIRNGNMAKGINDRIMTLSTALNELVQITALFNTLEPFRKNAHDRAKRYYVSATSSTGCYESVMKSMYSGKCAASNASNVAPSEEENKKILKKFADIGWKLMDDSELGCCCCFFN
Test: PBM E-score (8-mer binding enrichment) (E-score (-0.5 to 0.5)); higher = stronger / more preferred TF binding; most listed sequences are background and not binding sites
Settings: protein concentration: 200 nM; construct: GST-full length
Summary of the method: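 The E-score, a modified Wilcoxon-Mann-Whitney statistic, was computed by the Universal PBM Analysis Suite for every ungapped eight-base word pooled with its reverse complement. Scans behind it were normalised with masliner after bound GST-tagged yeast transcription factors were detected with fluorescent anti-GST. The proteins, at about 100-200 nM, had been applied to universal all-10-mer Agilent arrays made double-stranded by primer extension.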

| Sequence | PBM E-score |
| --- | --- |
| TCTATGAA | 0.18 |
| CCAAAACA | -0.026 |
| CCACAGAG | -0.11 |
| GGCTGCAA | -0.035 |
| ACCTGCCA | -0.145 |
| AGTCACAT | 0.0586 |
| TGTGGTAA | 0.0658 |
| CGTTAAGA | 0.0447 |
| TAATCGGA | 0.0884 |
| ATCCTCGA | 0.131 |
| CTCACAAC | 0.094 |
| AACCGGAC | 0.00664 |
| ACGGAAAA | 0.422 |
| CGCGAGAG | -0.0813 |
| ATGGTCAC | -0.0478 |
| ATGTAGCG | -0.165 |
| ACCTCTCG | -0.107 |
| AGGCAGTG | -0.0313 |
| ATAGAGGA | -0.0197 |
| GAGATCCC | 0.0749 |
| ACCGGCCA | -0.314 |
| AGGCCGCC | -0.287 |
| ACCTCAGA | -0.178 |
| GAGATAAA | 0.199 |
| AATGGATC | 0.0944 |

| Sequence | PBM E-score |
| --- | --- |
| AGTACGAT | 0.0266 |
| CGGGGCGA | -0.145 |
| AACCCAAG | 0.0383 |
| CAGTAGGC | 0.0494 |
| TGTACGAA | 0.121 |
| GTTATATA | 0.154 |
| CCGCGCGA | 0.00927 |
| ATCAACTC | 0.083 |
| CTCGAGAC | -0.0239 |
| AAGTTGCA | -0.0761 |
| AAGCGGCA | 0.0443 |
| GAAGCAAA | 0.0788 |
| ACGCCAGT | 0.00472 |
| ACCAACTC | -0.0506 |
| CCAGAAAC | -0.0409 |
| AGTCTAAA | 0.103 |
| CTTATACC | 0.109 |
| CTTCCGAC | 0.0527 |
| GGGGCCCC | -0.304 |
| GTTTCGTA | 0.172 |
| CTTGTGGC | -0.108 |
| ATTATAAT | 0.205 |
| GTACGTTA | 0.177 |
| ACCTCCGT | 0.0387 |
| CACTTAAC | 0.167 |

| Sequence | PBM E-score |
| --- | --- |
| CACGGCAC | -0.168 |
| GGGTCTTA | -0.13 |
| ACAATCAG | 0.124 |
| CCTTGTAA | 0.168 |
| ATTATTGC | 0.225 |
| CCGCCCGC | -0.0969 |
| GATCAGAC | 0.00463 |
| AAGCCTCG | -0.158 |
| TAGATTAA | 0.312 |
| AGACTCTA | -0.0647 |
| CCTTCGAA | 0.0559 |
| CGAGCGTC | -0.183 |
| CCCGGCTC | -0.271 |
| ACACTAAT | 0.0168 |
| CGGCTGTC | -0.00597 |
| CCCCTGTA | -0.13 |
| CAATCAAA | 0.111 |
| AACAATCC | 0.338 |
| AGTTGTGA | 0.26 |
| AATACGGC | 0.189 |
| ACGAATAC | 0.0881 |
| GGAAACAA | 0.101 |
| ACACCATG | -0.0872 |
| CCAAACAA | 0.157 |
| GCAGGAGC | -0.204 |

| Sequence | PBM E-score |
| --- | --- |
| CACGTCGC | -0.17 |
| ATCCACAA | 0.125 |
| ATTCCTTC | 0.17 |
| GAGATATA | 0.142 |
| CTATCGGC | -0.156 |
| CGTTGTGC | -0.162 |
| AAGGCGAC | -0.165 |
| ACGGCAGT | -0.108 |
| CACACTCG | 0.173 |
| CAGCTGAC | -0.0706 |
| CGCGGTTC | -0.101 |
| TAAGCGTA | -0.113 |
| AGGAGGCG | -0.283 |
| GAGGCACA | 0.0123 |
| CCTCTTCC | -0.19 |
| ACTTGTAC | 0.0434 |
| ATGGTAGC | -0.104 |
| GACGAACC | -0.134 |
| GCCCAGTA | -0.0931 |
| TACCCTCA | -0.0963 |
| AGGGGCTC | -0.317 |
| CCAGCGCA | -0.086 |
| GTTACAAA | 0.272 |
| AAGGTACC | -0.202 |
| AAAATCTT | 0.255 |

| Sequence | PBM E-score |
| --- | --- |
| AGAGGGAG | -0.227 |
| CTTAGACC | -0.0729 |
| ACAGTGAG | 0.00771 |
| ACCGGCAC | -0.179 |
| GCTCACTA | -0.0185 |
| CCTTCCAC | -0.0656 |
| AATTACCT | 0.187 |
| GGGCATTA | -0.152 |
| CTTAGCTC | -0.12 |
| CAGGAAGG | -0.242 |
| CTTCCATA | 0.00603 |
| CAGGTAGA | -0.138 |
| AGATGATG | 0.0362 |
| ACCCCAGT | -0.0571 |
| GTCGTTTA | 0.0819 |
| GGGGGGCA | -0.441 |
| GGCCGTTA | 0.0064 |
| ACGGGCTG | -0.235 |
| AGTTAACG | 0.156 |
| GGCTAGCC | -0.419 |
| TGACCCCA | -0.185 |
| CAGTCTAA | 0.0811 |
| TCGGTAGA | 0.0295 |
| GCCCCGAA | -0.0306 |
| CAGCTCTA | -0.123 |

| Sequence | PBM E-score |
| --- | --- |
| CTATGATA | 0.113 |
| AAGTTCCG | 0.186 |
| GTGCAGGA | -0.212 |
| AAAAATCG | 0.171 |
| AAGCTCCT | -0.239 |
| AAACGGGA | 0.181 |
| ACTTCTTA | 0.0721 |
| TACTGAGA | -0.0532 |
| CAGCGCGA | -0.045 |
| AGCGATCA | -0.0363 |
| GGAGTAAC | 0.0441 |
| AGCATAGC | -0.189 |
| GGTCTCTA | -0.00183 |
| CGCTACCG | -0.117 |
| GGTTGGTA | 0.214 |
| GCATCCCA | -0.256 |
| AAAGCAGG | 0.052 |
| TGCCGGCA | -0.0771 |
| CATGGGGG | -0.227 |
| ACAACCTC | -0.129 |
| ACCCGTAG | -0.324 |
| CGCTTATC | -0.00322 |
| ATCGCAAG | 0.0744 |
| CAGGGGCG | -0.319 |
| CATTGCGG | -0.124 |

| Sequence | PBM E-score |
| --- | --- |
| CTGTGTGA | 0.00098 |
| AACGACCT | -0.0289 |
| GCGTGTGA | -0.0632 |
| TTCATGAA | 0.166 |
| CTATATAG | 0.0604 |
| AGCCTGCA | 0.0148 |
| ATTGCCGA | -0.0189 |
| AGAATGGA | 0.0873 |
| CTTCCCCA | -0.233 |
| CCAATTTA | 0.203 |
| CCAGTAAC | 0.0247 |
| AACGCCTC | -0.181 |
| CTAAAGTA | -0.0425 |
| GGTGTACA | -0.0339 |
| ACTGTCTC | 0.0553 |
| TCTGGACA | -0.237 |
| ACAGAGCG | -0.0319 |
| ATTGTGCG | -0.0415 |
| ACTTAAGT | 0.177 |
| AGCTTCGA | 0.0258 |
| AGGATTCG | -0.0751 |
| CATGAGTA | -0.097 |
